Assay results published in PubChem BioAssay AID662 (National Center for Advancing Translational Sciences (NCATS), 2007).
Out of some 71,000 compounds screened, about 1,800 (2.5%) were called active. Inconclusive means that the source gave no clear call. Such entries were picked first, then a sample of the others. The call rests on the fitted dose curve; in most records, active means well fitted activation curve with a large enough effect in the signal ratio, with a control signal flat (not every such curve was filed as active); inconclusive means small, poorly fitted or top-dose-only effect, or effect the other way, or a change in a side signal; inactive means flat fitted curve, though single readings scatter; the % refers to the signal ratio. A potency beside an inconclusive call is a rough fit, not a confirmed value.

Assay: Cell signaling CRE-BLA (Fsk stim); on activity change, negative = inhibition: % of control where 0% means no effect
Conditions: CHO CRE-bla reporter (cAMP response element driving beta-lactamase), forskolin EC10, beta-lactamase ratio; activity change, negative = inhibition: at 38.2 µM (top of the series) unless noted
Outline: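 qHTS titration format; CRE-bla CHO reporter; stimulus EC10 NKH 477, a water-soluble forskolin. Read: CCF4 460/530 nm ratio. Potency expressed as AC50 for activators or inhibitors.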
Potency means the concentration at half of the fitted maximal effect; tags describe the fitted curve by direction and shape.

| SMILES | activity change, negative = inhibition | Potency |
| --- | --- | --- |
| CC1(C)CC(=O)C2=C(C1)NC(Nc1nc3ccccc3o1)=NC21CCCC1 | inactive |  |
| CN(C)Cc1cc(Cl)c(O)c(CN(C)C)c1 | inactive: -3.96% [at 7.6 µM] |  |
| COc1cc(-c2nnc(SCc3c(F)cccc3Cl)o2)cc(OC)c1OC | inconclusive: 22.7% |  |
| N[C@]1(C(=O)O)CCc2cc(P(=O)(O)O)ccc21 | inactive |  |
| CCCCn1nc(CC(=O)O)c2ccccc2c1=O | inconclusive: 8.92% |  |
| CCC(Sc1nc2n[nH]c(C)c2c(=N)n1-c1cccc(Cl)c1C)C(=O)N(CC)CC (configuration not stated) |  | inconclusive: 6.31 µM [rising, partial curve] |
| CCCCn1c(SCC(N)=O)nnc1-c1cc(OC)c(OC)c(OC)c1 |  | inconclusive: 12.6 µM [rising, single point] |
| CC1CCCCC1NC(=O)COc1ccc(-n2cnnn2)cc1 (configuration not stated) | inconclusive: -11.9% |  |
| CC1CCCN(c2nc3ccsc3c(=O)s2)C1 (configuration not stated) |  | inconclusive: 20 µM [rising, partial curve] |
| Cc1ccc(C(=O)Cn2c3c(sc2=N)CCCC3)cc1 | inconclusive: -21.4% |  |
| CCCCn1c(=N)n(CC(O)COc2ccc(C)cc2)c2ccccc21 (configuration not stated) | inactive |  |
| CC(C)Nc1ncnc2c1cnn2-c1ccc(Cl)cc1 |  | inconclusive: 2.51 µM [rising, full curve, poor fit] |
| COCCN1C(=O)C(O)=C(C(=O)c2ccco2)C1c1cccc(Oc2ccccc2)c1 (configuration not stated) | inconclusive: -22.1% [at 7.6 µM] |  |
| CN(C)S(=O)(=O)c1ccc(C(=O)Nc2nc(-c3cccs3)cs2)cc1 | inconclusive: 25.7% |  |
| CCCn1c(SCc2ccccc2)nc2c1c(=O)[nH]c(=O)n2C |  | inconclusive: 10 µM [rising, partial curve] |
| Cn1c(-c2ccc(Cl)cc2)cnc1N | inconclusive: -3.85% |  |
| CCOC(=O)c1cnc(SC2CC(=O)N(c3ccc(OC)c(OC)c3)C2=O)nc1N (configuration not stated) | inconclusive: 29.8% |  |
| COc1ccc2[nH]c(=O)c(CN(CCc3ccccc3)Cc3nnnn3CC3CCCO3)cc2c1 (configuration not stated) | inconclusive: 29.2% |  |
| COc1cccc(-c2cncnc2NCCc2c[nH]c3ccc(OC)cc23)c1 | inconclusive: -9.46% |  |
| Cc1ccc(S(=O)(=O)NCCN=C(CN2CCOCC2)NS(=O)(=O)c2ccc(C)cc2)cc1 |  | inconclusive: 12.6 µM [falling, partial curve] |
| NCCSS(=O)(=O)CCN | inactive: 14.5% [at 7.6 µM] |  |
| O=C(NCc1cc(F)cc2c1OCCO2)[C@H]1C[C@@H]1[C@H](NP(=O)(c1ccccc1)c1ccccc1)c1ccccc1 | inactive |  |

| SMILES | activity change, negative = inhibition | Potency |
| --- | --- | --- |
| CCC(=O)N(Cc1cc2cccc(C)c2[nH]c1=O)c1ccccc1OC | inactive |  |
| CCCOc1ccc(C2c3c(oc4cc(C)c(C)cc4c3=O)C(=O)N2CCCN(C)C)cc1OCC (configuration not stated) | inactive |  |
| O=C(Nc1cc(=O)c2ccccc2o1)N1CCOCC1 |  | inconclusive: 3.98 µM [rising, partial curve] |
| COc1cccc(NC(=O)c2oc3ccccc3c2NC(=O)c2ccc3c(c2)OCO3)c1 | inactive |  |
| CC1=C(C(=O)OCc2ccccc2)C(c2ccccc2)NC(=O)N1CCCCCC(=O)O (configuration not stated) | inconclusive: 5.73% |  |
| COc1ccccc1OC(=O)c1ccc(SC)cc1OC | inactive |  |
| CC1CCCCN1CCNC(=O)Cn1nc(-c2ccccc2)ccc1=O (configuration not stated) | inconclusive: -5.78% |  |
| C=C(C)CSc1nc(N)cc(=O)[nH]1 | inconclusive: -24.8% |  |
| N/C(=N\S(=O)(=O)c1cccs1)c1ccccc1 | inactive |  |
| CCCc1c(OCCCOc2ccc(OCC(=O)O)cc2)ccc(CC=O)c1O |  | active: 0.1 µM |
| CC(C)OC(=O)c1cn(-c2ccccc2)nc1-c1ccco1 | inactive |  |
| O=C(OCc1csc(-c2ccccc2)n1)c1cccs1 |  | inconclusive: 3.16 µM [falling, single point] |
| COc1ccc(Cl)cc1NC(=O)Cn1c(=O)n2nc(C)nc2c2ccccc21 | inconclusive: 10.2% |  |
| CCCCOC(=O)CNc1nnc(SCC(=O)OCC)[nH]c1=O | inconclusive: -25.8% |  |
| Cc1c(NC(=O)C(C#N)=C2CCCCC2)c(=O)n(-c2ccccc2)n1C | inactive |  |
| O=C1c2ccccc2S(=O)(=O)N1Cc1nc2ccccc2s1 | inconclusive: 8.46% |  |
| CCCCCCn1c(N(CC)CC)nc2c1c(=O)[nH]c(=O)n2C |  | active: 10 µM |
| CCOC(=O)CCc1c(C)c2ccc(O)cc2oc1=O | inconclusive: 17.7% |  |
| COc1cccc(-c2noc(-c3cccnc3)n2)c1 | inactive |  |
| COc1ccc(C(=O)NC2(C(F)(F)F)N=C3SCCN3C2=O)cc1 (configuration not stated) | inactive |  |
| Cc1cc(Nc2ccc3c(c2)OCCO3)n2nc(C)nc2n1 |  | inconclusive: 7.94 µM [rising, partial curve] |
| CC(C)C[C@@H](CC(=O)N[C@H](CC(=O)N[C@@H]1CCCC[C@H]1C(=O)N[C@H](CC(=O)N[C@@H](CCC(=O)O)CC(=O)O)Cc1ccccc1)C(C)C)NC(=O)[C@@H]1CCCC[C@H]1N | inconclusive: -23.5% |  |

| SMILES | activity change, negative = inhibition | Potency |
| --- | --- | --- |
| O=C(NCc1cccnc1)c1cnc2sccn2c1=O | inactive |  |
| O=C(c1c[nH]c2ccc(S(=O)(=O)N3CCC4(CC3)OCCO4)cc2c1=O)N1CCOCC1 | inactive |  |
| Clc1ccc(Sc2oc(/C=N/n3cnnc3)cc2Br)cc1 |  | inconclusive: 0.0631 µM [rising, full curve, poor fit] |
| CCOC(=O)c1sc(NC(=O)CSc2nnnn2-c2ccccc2)nc1C |  | inconclusive: 5.01 µM [rising, single point] |
| Cc1cc(NC(=O)c2ccc(NC(=O)c3cccs3)cc2)no1 | inconclusive: 7.14% |  |
| COc1cccc(Cn2c(=O)c(-c3cc(F)cc(F)c3)nc3cnc(N4CCNCC4)nc32)c1 |  | inconclusive: 0.316 µM [rising, full curve] |
| O=C(CSCc1cccc(F)c1)N1CCN(c2ccccc2)CC1 | inactive |  |
| CN(C(=O)c1ccccc1C(=O)O)C1CC(C)(C)NC(C)(C)C1 | inactive |  |
| N#Cc1c2c(c(NCCCN3CCOCC3)n3c1nc1ccccc13)CCC2 | inactive |  |
| COC(=O)C1=C(C)Nc2nnnn2C1c1ccco1 (configuration not stated) | inactive |  |
| c1ccc(Nc2nc(-c3ccc4c(c3)OCO4)nc3ccccc23)cc1 | inconclusive: 12.7% |  |
| COc1ccc(-n2c(Cc3cccn3C)nnc2SCC(=O)Nc2ccc(F)cc2)cc1 | inconclusive: -13.3% |  |
| Cc1ccc2c(c1)nnn2C1CCN(CC(=O)Nc2ccccc2N2CCOCC2)CC1 |  | inconclusive: 12.6 µM [rising, partial curve] |
| Cc1cccc(-n2nnnc2SCC(=O)c2cc(C)n(Cc3ccco3)c2C)c1 | inconclusive: 22.3% |  |
| CCOc1ccc(NC(=O)COC(=O)c2cccnc2)cc1 | inactive |  |
| N#CC1=C(N)OC2=C(C(=O)CCC2)C12CCN(C(=O)OCc1ccccc1)CC2 | inactive |  |
| N#Cc1ccc(CN2CCC3(CC2)CCN(C(=O)c2ccncc2)CC3)cc1 | inactive |  |
| Cn1nnnc1SCc1c(F)cccc1F | inconclusive: 9.42% |  |
| O=C(OC1CCOC1=O)c1ccc2ccccc2n1 (configuration not stated) |  | inconclusive: 3.16 µM [falling, single point] |
| COc1cc(-c2nnc(SCC(=O)Nc3cc(C)on3)n2C)cc(OC)c1O | inconclusive: 20.6% |  |
| CCOC(=O)COc1ccc2c(c1)C(=O)CC(C)(c1cccnc1)O2 (configuration not stated) | inconclusive: 20.6% |  |
| Cn1c(=O)c(-c2cc(F)cc(F)c2)nc2cnc(N3CCOCC3)nc21 |  | inconclusive: 5.01 µM [rising, partial curve] |

| SMILES | activity change, negative = inhibition | Potency |
| --- | --- | --- |
| O=C(c1cncc(Br)c1)N1CCN(c2ccc(N3CCOCC3)nn2)CC1 | inactive |  |
| CCOC(=O)c1cc2cc(C)ccc2[nH]1 | inconclusive: 9.79% |  |
| Cn1c(-c2ccc(Br)o2)nc2cc(Br)ccc21 |  | inconclusive: 10 µM [rising, single point] |
| NC12CC3CC(C1)CC(CO)(C3)O2 | inactive |  |
| Cn1c(=O)c2cn3c(c2n(C)c1=O)C(c1ccccc1)CC(c1ccccc1)=N3 (configuration not stated) | inactive |  |
| O=C(CN1C(=O)c2cccc3cccc1c23)N1CCN(c2ccccc2)CC1 | inactive |  |
| O=C(c1coc(=O)c2ccccc12)N1CCN(Cc2ccccc2)CC1 | inconclusive: 4.12% |  |
| CCNCCNC(=O)c1c(O)c2ccccc2n(CC)c1=O |  | inconclusive: 3.16 µM [rising, single point] |
| CCN(CC)C(=O)CSc1nnc([C@H](CCSC)NC(=O)OC(C)(C)C)o1 | inactive |  |
| CCCCCCCCN[C@@H](C)[C@H](O)c1ccc(SC(C)C)cc1 | inactive |  |
| Cc1occc1C(=O)Nc1cc(=O)n(C)c(=O)n1C |  | inconclusive: 5.01 µM [rising, partial curve] |
| CN1CCc2nc(SCCOc3ccccc3)c(C#N)cc2C1 | inconclusive: 17.7% |  |
| CN(C)c1ccc(C2CC(=O)NC3=C2C(=O)CC(C)(C)C3)cc1 (configuration not stated) | inconclusive: -18.1% [at 7.6 µM] |  |
| O=C(NCc1cccs1)C1CCN(S(=O)(=O)N2CCCC2)CC1 | inactive |  |
| O=C(CCOc1ccccc1)NCc1ccccc1 | inconclusive: 21.6% |  |
| CCCN(CCC)c1nc2ccccc2n2c(C)nnc12 | inactive |  |
| O[C@@H]1[C@@H]2c3cc4c(cc3CN3CCC(=C[C@@H]1O)[C@H]23)OCO4 |  | active: 0.794 µM |
| c1ccc(OCCCc2nc(-c3ccccn3)no2)cc1 |  | inconclusive: 12.6 µM [rising, single point] |
| Nc1c(C(=O)NCCN2CCOCC2)c2nc3ccccc3nc2n1-c1cccc(F)c1 |  | active: 7.94 µM |
| CCOC(=O)CC(=O)Nc1cc(Cl)ccc1O | inconclusive: -27.4% |  |
| CC1=C(C(=O)OCC2CCCO2)C(c2ccccc2OC(C)C)C2=C(CC(c3ccco3)CC2=O)N1 (configuration not stated) | inconclusive: 29.6% |  |
